Assay results as given in PubChem BioAssay AID760 (NMMLSC, 2007).
Out of some 190,000 compounds screened, about 360 (0.19%) were called active. Inconclusive means that the source gave no clear call. Such entries were picked first, then a sample of the others.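 How the source made its calls: active means GTP binding activity at least 20 points away from 100%, either lowered or raised; inconclusive means signal likely due to the compound's own green fluorescence; inactive means the rest.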

biological target: Ras-related protein Rab-2A (Canis lupus familiaris) (UniProt P61105); assay: Rab2 wt fluorescent GTP binding changes, either direction – biochemical, dog, bead-based flow cytometry, multiplex, primary screen (AID 760); conditions: GST-Rab2 wt beads, Bodipy-GTP binding, at 10 µM;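 further: 0% = beads with excess unlabeled GTP and 100% = no-compound control corrected for plate trend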

SMILES | GTP binding activity
COc1cc2[nH]c(=S)nc(NCCC(C)C)c2cc1OC | active: 59%
O=C(CN1CCC2(CC1)OCCO2)c1ccc2cc[nH]c2c1 | inconclusive: 109%
Cc1noc(NS(=O)(=O)c2ccc(NC(=O)CSc3nnc4c(n3)[nH]c3ccccc34)cc2)c1C | inconclusive: 54%
COC(=O)COc1ccc(S(=O)(=O)NCc2ccco2)cc1 | inconclusive: 104%
N#CC1=C(N)Oc2n[nH]c(-c3cccnc3)c2C1c1ccc([N+](=O)[O-])o1 (stereo not given) | inconclusive: 94%
O=C(Oc1c(Br)cc(Br)c2cccnc12)N1CCCCC1 | inconclusive: 93%
O=C(CNC(=S)N(Cc1ccccc1)Cc1ccccc1F)NCc1ccc(Cl)cc1 | inconclusive: 93%
O=C(NCCCNc1ccc(C(F)(F)F)cc1[N+](=O)[O-])c1ccc(Cl)cc1 | inconclusive: 84%
Cc1cccc2cc(C#N)c(NCCNC(=S)NCCCN3CCOCC3)nc12 | inconclusive: 93%
O=c1c(-c2ccccc2)n[nH]c2ccccc12 | inconclusive: 102%
C=CCC1(C#N)C(SC)=NC2=C(C(=O)CC(C)(C)C2)C1c1ccc(Br)cc1 (stereo not given) | inactive: 104%
CCCOP(=O)(OCCC)C(Nc1ccc(C(=O)O)cc1)c1ccccc1 (stereo not given) | inconclusive: 91%
Cc1cc(C(=O)CN2C(=O)C(=O)N(Cc3ccccc3)C2=O)c(C)n1-c1ccccc1F | inconclusive: 85%
CCCCN(C)C(=S)Nc1ccc(Oc2ccccc2)cc1 | inactive: 103%
O=C(NCCN1CCOCC1)c1ccc(=O)n(Cc2ccc(Cl)cc2)c1 | inactive: 95%
CCN(CC)c1ccc2c(c1)oc(=O)c1c(Cl)cc(=O)oc12 | inactive: 89%
Cc1nc(NC(=O)/C=C/c2ccc(Cl)cc2Cl)sc1C(=O)N(C)C | inconclusive: 73%
Cc1cc(NS(=O)(=O)c2ccccc2)c(C)c(Cl)c1O | inactive: 101%
Cc1ccnc(Nc2nc(-c3c(C)nc4sccn34)cs2)c1 | inconclusive: 75%
CC(=O)NCCCNc1ccc([N+](=O)[O-])cc1 | inconclusive: 104%
Nc1[nH]nc2ncc3cc4ccccc4nc3c12 | inactive: 82%
Cc1cc(NC(=O)c2ccccc2)ncc1NC(=O)c1ccco1 | inconclusive: 105%
COc1ccc(S(=O)(=O)N2CCN(CC(=O)Nc3cc(C(F)(F)F)ccc3Cl)CC2)cc1 | inconclusive: 37%

SMILES | GTP binding activity
CCCC1CC(C)(C(=O)Cn2[nH]c(=O)ccc2=O)OC1=O (stereo not given) | inconclusive: 102%
Cc1cc(N=NC(=O)c2ccccc2O)c2ccccc2c1O | active: 78%
COc1ccc(C(=O)Oc2coc(CSc3nnc(NC(=O)c4cccs4)s3)cc2=O)cc1 | inconclusive: 91%
Cn1c(SCCOc2ccccc2F)nc2ccccc2c1=O | inconclusive: 72%
CNC(=O)NC(=O)CSc1nc(-c2cccs2)c(C#N)c(=O)[nH]1 | inconclusive: 90%
COc1cccc(N2CCN(Cc3nc(N)nc(N4CCCc5ccccc54)n3)CC2)c1 | inconclusive: 86%
O=C(c1cc(S(=O)(=O)N2CCCCC2)c(Cl)cc1N1CCOCC1)N1CCOCC1 | inconclusive: 109%
Cc1ccc2c(c1)N(CC(=O)NC1CCC(C)CC1)C(=O)CO2 (stereo not given) | inconclusive: 102%
COc1ccc2nc(C)cc(SCC(=O)N/N=C/c3cccc4ccccc34)c2c1 | inactive: 98%
COC(=O)C1SCC2C(=O)N(Cc3ccccc3)CC(=O)N21 (stereo not given) | inactive: 96%
COc1ccc(CCNC(=O)CSc2nnc(-c3cccc(F)c3)o2)cc1OC | inconclusive: 106%
C/C(=N\NC(=O)CC1N=C(Cc2ccccc2)NNC1=O)c1ccc(Cl)cc1Cl (stereo not given) | inconclusive: 142%
COc1ccccc1OCC(O)Cn1c(=N)n(CCN2CCCCC2)c2ccccc21 (stereo not given) | inconclusive: 95%
O=C(Nc1nnc(-c2cccs2)o1)c1ccc(S(=O)(=O)N2CCOCC2)cc1 | inconclusive: 90%
O=C(CN1C(=O)C2CC=CCC2C1=O)Nc1ccc(S(=O)(=O)N2CCOCC2)cc1 (stereo not given) | inactive: 98%
O=C(Cn1cnc([N+](=O)[O-])n1)N/N=C/c1cc(Cl)ccc1O | inconclusive: 88%
CCS(=O)(=O)N1N=C(c2cccc(NS(C)(=O)=O)c2)CC1c1ccccc1 (stereo not given) | inconclusive: 110%
Cc1cccc(Nc2nc3c(S(=O)(=O)c4ccccc4)nnn3c3ccccc23)c1 | inconclusive: 100%
COc1ccc(S(=O)(=O)Nc2ccccc2C(=O)NCc2ccco2)cc1Br | inactive: 100%
O=C(O)c1cccc(Nc2ncnc3c2cnn3-c2ccccc2)c1 | inconclusive: 92%
CCOC(=O)C1CCN(C(=O)Nc2ccc(Cl)cc2)CC1 | inconclusive: 107%
O=C(O)c1ccc2nc3c(nc2c1)-c1ccccc1C3=O | inconclusive: 76%
c1csc(CNCc2ccncc2)c1 | inconclusive: 97%

SMILES | GTP binding activity
COc1ccc(C(=O)CSc2ncn[nH]2)cc1OC | inconclusive: 103%
O=C(N/N=C/c1ccco1)c1cccc(N2Cc3ccccc3C2)c1 | inconclusive: 82%
COc1cc(C(=O)N/N=C/c2ccc(OC)c(CN3CCN(c4ccc(F)cc4)CC3)c2)ccc1O | inconclusive: 79%
S=c1[nH]nc(-c2cccnc2)n1/N=C/C(Cl)=C\c1ccccc1 | inconclusive: 92%
CCOc1cc(CN2CCC(CO)(Cc3cccc(C(F)(F)F)c3)CC2)ccc1OC | inactive: 98%
COc1ccc(S(=O)(=O)N2CCCCC2)cc1NC(=O)c1ccc([N+](=O)[O-])o1 | inactive: 84%
CCCC(=O)Nc1nc2c(c(=O)[nH]1)CCCC2 | inconclusive: 102%
CCOc1ccccc1N(CC(=O)N/N=C(\C)c1cccc(Br)c1)S(C)(=O)=O | inconclusive: 94%
COc1ccc2c(c1)c1nnc(SCC(=O)N3CCCCC3C)nc1n2C (stereo not given) | inconclusive: 85%
Cc1cccc(C(=O)NC(=S)NNC(=O)COc2c(C)cccc2C)c1 | inconclusive: 86%
Clc1ccc(CN2CCN(/N=C/c3cccnc3)CC2)cc1 | inactive: 101%
NC(=O)c1sc2nc3c(c(-c4ccco4)c2c1N)CCC3 | inconclusive: 84%
COc1ccc(/C=C2\N=C(SC)N(c3ccccc3OC)C2=O)cc1 | inactive: 96%
COc1cccc(-n2c(SCC(=O)NCCC3=CCCCC3)nc3n[nH]c(C)c3c2=N)c1 | active: 76%
Cc1ccc(NS(=O)(=O)c2cc(C(=O)Nc3cccc(N(C)S(C)(=O)=O)c3)ccc2C)c(C)c1 | inconclusive: 99%
CCCCCCn1c(-c2cccs2)n[nH]c1=S | inconclusive: 86%
Cc1ccc(CSc2nc3[nH]ncc3c(=O)[nH]2)cc1 | active: 79%
CC(C)N(C(=O)CSc1nnnn1-c1ccc2c(c1)OCO2)C(C)C | inactive: 99%
O=C(NC(=S)Nn1cnc2c(cnn2-c2ccccc2)c1=O)c1ccc(Oc2ccccc2)cc1 | inconclusive: 91%
Cc1ccc(-n2ncc3c(SCc4cccc(C)c4)ncnc32)cc1 | inconclusive: 98%
CC(C)C1O/C(=N/C(=O)Nc2ccc(Cl)c(Cl)c2)NC1=O (stereo not given) | inactive: 96%
CCCCN1C(=O)C2C(c3ccc(OC)cc3O)NC(CC(C)C)(C(=O)O)C2C1=O (stereo not given) | inconclusive: 101%
O=C(O)c1cccnc1SCc1cccc(Cl)c1 | active: 132% [activator]

SMILES | GTP binding activity
Cc1nccn1CCCNC(=O)CC1C(=O)NCCN1Cc1ccc(Cl)c(F)c1 (stereo not given) | inconclusive: 95%
O=C(CCC(=O)N(CC(=O)NC1CCCC1)C1CCCCC1)Nc1ccccn1 | inactive: 100%
COCCCN1C(=O)C(=O)/C(=C(/O)c2ccc(C)cc2)C1/C=C/c1ccccc1 (stereo not given) | inconclusive: 89%
O=C(NNC(=S)NC(=O)c1cccs1)c1ccc(NC(=O)c2ccccc2)cc1 | inconclusive: 89%
COc1ccc(-c2ccc(S(=O)(=O)NCC3CCCO3)cc2)cc1 (stereo not given) | inactive: 99%
NC(=O)C1CCN(C(=O)COc2ccc(S(=O)(=O)NCc3ccccc3)cc2Cl)CC1 | inconclusive: 97%
COC(C(=O)NC1CC1)c1ccccc1 (stereo not given) | inconclusive: 103%
O=C1/C(=C\c2ccc(-c3ccccc3[N+](=O)[O-])o2)C(c2ccccc2)=NN1c1ccccc1 | inconclusive: 86%
O=c1[nH]c(CN2CCCC2)nc2sc3c(c12)CCC3 | inconclusive: 193%
COc1cc2c(cc1OC)CN(c1nc(-c3cccnc3)nc3ccccc13)CC2 | inactive: 96%
CCOC(=O)c1ccc(NC(=O)C2CC(=O)Nc3nc4ccccc4n32)cc1 (stereo not given) | inactive: 94%
O=C(Nc1ccccc1)Nc1cccc2cccnc12 | inconclusive: 95%
COc1cc2c3nnc(-c4ccc(F)cc4)c-3cn(Cc3cccc(F)c3)c2cc1OC | inconclusive: 228%
COc1ccc(-c2cc(=O)c3c(O)c(OC)c(O)cc3o2)cc1 | inactive: 88%
Cc1cc(C)c(-c2cc(NC(=O)CSc3nncn3C)n(-c3ccccc3)n2)cc1C | inconclusive: 101%
Cc1ccc(-c2cc(C(=O)Nc3nn[nH]n3)c3ccccc3n2)c(C)c1 | inconclusive: 94%
CCOC(=O)c1ccc2ncc(-c3ccccc3)nc2c1 | inconclusive: 72%
O=C(NNC(=O)C1CCN(S(=O)(=O)c2cccc(C(F)(F)F)c2)CC1)C1CC1 | inconclusive: 98%
COc1ccc(N(CC(=O)Nc2ccccc2C(N)=O)S(=O)(=O)c2ccc(C)c([N+](=O)[O-])c2)cc1 | inactive: 92%
CCc1nnc(NC(=O)CSc2nnnn2-c2cccc(C(C)=O)c2)s1 | inactive: 97%
CCN(CC)S(=O)(=O)c1ccc(C(=O)NC(=S)N(CCC#N)Cc2cccnc2)cc1 | inconclusive: 92%
